From PubChem BioAssay AID1346428 (National Center for Advancing Translational Sciences (NCATS), 2018)
Screen size: about 48,000 compounds; about 1,200 (2.5%) were called active. About 2% were inconclusive and are not listed.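 The calls were made as follows: active = activation of at least 60% and not above a set upper limit (about 1 call in 100 departs from these limits); inconclusive = activation of 40% to 60%, or above that upper limit; inactive = activation under 40%.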 Some of the results follow.

Biological target: Probable G-protein coupled receptor 32 (Homo sapiens) (UniProt O75388)
Assay: qHTS for Agonists of Human Resolvin D1 Receptor DRV1; also: 0% is about no effect
Conditions: CHO-K1 GPR32 beta-arrestin PathHunter luminescence, 90 min; at 76.9 µM; hits give high values; zero percent set by DMSO-only wells
In short: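 PathHunter enzyme-fragment complementation, CHO-K1 GPR32 stable line; 2,500 cells/well, overnight attach; cpd 90 min 37 °C 5% CO2; detection reagent 1 h RT; chemiluminescence. DMSO = EC0.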

Chain of UniProt O75388 (O75388 whole entry, looked up): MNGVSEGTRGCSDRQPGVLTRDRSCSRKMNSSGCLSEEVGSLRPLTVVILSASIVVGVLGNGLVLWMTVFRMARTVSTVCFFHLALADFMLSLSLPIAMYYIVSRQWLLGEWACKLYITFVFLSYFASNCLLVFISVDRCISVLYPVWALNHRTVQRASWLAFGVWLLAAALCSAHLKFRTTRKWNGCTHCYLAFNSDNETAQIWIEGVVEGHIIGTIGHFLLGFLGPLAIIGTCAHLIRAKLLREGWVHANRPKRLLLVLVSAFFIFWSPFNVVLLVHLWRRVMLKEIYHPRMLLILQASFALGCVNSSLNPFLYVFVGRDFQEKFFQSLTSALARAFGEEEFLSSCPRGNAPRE

activation, inactive:
Cc1cc(C)c2c(n1)SCC(=O)N2CC(=O)Nc1c(C)cccc1C 1.99%
COc1ccc(OC)c(CCNc2ncnc3onc(C)c23)c1 25.2%
CCn1c(CN2CCC(C)CC2)nc2cc(NC(=O)c3cccc([N+](=O)[O-])c3)ccc21 0.323%
COc1ccc(NS(=O)(=O)c2cc3c4c(c2)CC(=O)N4CCC3)cc1Cl -16.1%
O=C(NC1(C(F)(F)F)N=C(c2ccccc2)N(C2CCCCC2)C1=O)c1ccccc1F (centres undefined) -13.6%
COc1ccc(C(=O)Nc2ccc3c(c2)N(C)C(=O)c2ccccc2S3)cc1OC -2.83%
CCOC(=O)c1cnc2c(C)cc(C)cc2c1Nc1ccc(N2CCOCC2)cc1 14.9%
Cc1ccc(-n2nc(C)c(C(=O)NCCCN3CCN(c4ccccc4F)CC3)c2-n2cccc2)cc1 11.3%
CN(Cc1ccccc1)C(=O)c1ccc2c(c1)N(Cc1ccc(Cl)cc1)C(=O)c1ccccc1S2=O (centres undefined) -3.09%
CCCOc1ccccc1C(=O)Nc1nc2c(s1)CCCC2 -33%
Cc1oc(-c2ccc(Cl)cc2)nc1CN1CCCC(C(=O)NCc2ccc(Cl)cc2)C1 (centres undefined) 8.94%
CC(C)c1ccc(NC(=O)CSC2=Nc3ccccc3C3=NC(CC(=O)NCc4ccco4)C(=O)N23)cc1 (centres undefined) -26.7%
O=c1c2ccccc2n2c(-c3cccc(F)c3)nnc2n1Cc1ccccc1 -4.79%
COc1ccc(NC(=O)c2ccc3c(=O)n4nc(Nc5ccccc5C)sc4nc3c2)cc1 -13.5%
Cn1c(=O)c2c(c3ccccc31)OC(=O)CC2c1ccccc1 (centres undefined) 1.09%
CCc1ccccc1N1CC(c2nc3ccccc3n2CCC2CCCCC2)CC1=O (centres undefined) 33.5%
Cc1nnc(N2CCC(C(=O)NCc3cccc(Cl)c3)CC2)c2nn(-c3ccccc3)c(C)c12 20%
COc1cccc(NS(=O)(=O)c2ccc3[nH]cc(C(=O)N(C)Cc4ccco4)c(=O)c3c2)c1 24.7%
C1=CC2C3C=CC(C3)C2C1 (centres undefined) -17.6%
CCOC(=O)N1CCN(C(=O)c2cnn(-c3cccc(C)c3)c2-n2cccc2)CC1 -5.71%
COc1ccc(OC)c(NC(=O)c2cc3c(=O)n4cccc(C)c4nc3n2C)c1 0.679%
Cc1cccc(N2CCN(C(=O)c3c4c(nc5ccccc35)C(=O)N(C3CCCCC3)C4)CC2)c1C -9.26%
CN(C)c1ccc(-c2nc3ccccn3c2Nc2ccc3c(c2)OCCO3)cc1 -30.1%
Cc1ccc(N(C)C(=O)c2noc3c2CCCCC3)cc1C -7.06%
Cc1ccc(CC(=O)NCc2nc(-c3cccc(C)c3)no2)cc1 -15.7%
Cc1cccc(C)c1OCc1cc(=O)n2ccsc2n1 -8.92%
COc1cccc(NC(=O)CSc2nnc(NC(=O)NC3CCCCC3)s2)c1 0.22%
COc1cc(OC)c(NC(=O)C(C)n2nc(-c3ccc(C)c(C)c3)ccc2=O)cc1Cl (centres undefined) -14.8%
O=C(Nc1ccc(F)cc1)c1cccc(N2CCCS2(=O)=O)c1 -3.41%
Cc1cc(=O)n(C(C)C(=O)NCc2ccccc2Cl)c2c1c(C)nn2-c1ccccc1 (centres undefined) 7.3%
N[C@@H](CCCC(=O)O)C(=O)O -4.95%
CN(C)CCn1nnnc1SCC1=C(C(=O)O)N2C(=O)[C@@H](NC(=O)Cc3csc(N)n3)[C@H]2SC1 -3.99%
CCOc1ccccc1NC(=O)C1CCN(S(=O)(=O)Cc2ccccc2)CC1 23.9%
COc1cc(OC)c(C2C=C(c3ccc(C)cc3)Nc3c(C(=O)Nc4ccccc4)cnn32)cc1OC (centres undefined) -24.9%
Cc1cc(O)c(C(c2ccccc2Cl)N2CCCCC2)c(=O)n1Cc1ccco1 (centres undefined) -14.2%
Cc1ccc(C(C)C)c(OCC(=O)Nc2c(C(=O)c3ccc(F)cc3)oc3ccccc23)c1 -8.99%
COC(=O)C1=C(C)NC(=O)NC1c1cn(-c2ccccc2)nc1-c1ccc(OC)c(Cl)c1 (centres undefined) -21.7%
CCn1cc(C(=O)NCc2ccccc2)c(=O)c2cc(S(=O)(=O)N3CCOCC3)ccc21 -1.43%
Cc1c2cnn(CC(=O)N3CCCCC3)c(=O)c2c(C)n1Cc1ccc(Cl)cc1 12.6%
Cc1ccc(NC(=O)c2ccc3c(=O)n4nc(Nc5ccccc5C)sc4nc3c2)cc1C 30.6%
CCc1ccc(C2N3CC4(C)CN2CC(c2ccccc2)(C3)C4=O)cc1 (centres undefined) -6.42%
CCOC(=O)C(C)NC(=O)c1cc2c(=O)[nH]c3ccc(C)cc3c2s1 (centres undefined) -10.5%
O=C(NCCc1ccc(Cl)cc1)c1ccc2c(c1)N(Cc1ccc(F)cc1Cl)C(=O)CS2 9%
CC(C)CCCC(C)N (centres undefined) -0.708%
Cc1ccc(/C=C/c2onc(C)c2S(=O)(=O)N2CCC(C(=O)NCc3ccc(Cl)cc3)CC2)cc1 -0.268%
CC(NC(=O)c1ccc(N2Cc3ccccc3Oc3ncccc32)s1)c1ccccc1 (centres undefined) -21.2%
Cc1c(Cl)cccc1NC(=O)C(=O)NCCc1csc(-c2cccc(F)c2)n1 -12.8%
CCn1c(CN2CCCCC2)nc2cc(NC(=O)COc3ccc([N+](=O)[O-])cc3)ccc21 8.34%
COc1ccc(-c2[nH]c(-c3ccccc3)nc2SCC(=O)Nc2ccc3c(c2)OCO3)cc1 -3.94%
COc1ccc(NC(=O)c2ccc(-c3cccc(Cl)c3C)o2)cc1 -0.0644%
CC(NC(=O)Cc1ccc(NC(=O)N2CCCCc3ccccc32)cc1)c1ccccc1 (centres undefined) -16.3%
COc1ccc(-c2nc(CSc3nc4ncccc4[nH]3)c(C)o2)cc1OC -7.6%
COc1ccc(-c2noc(CSc3nnc(-c4ccncc4)n3-c3cccc(C)c3)n2)cc1OC 0.499%
Cc1cc(C)cc(NC(=O)NCC2CCN(Cc3cc(C)ccc3C)CC2)c1 -1.17%
